# According to paper PMC4336329 (PLoS ONE, 2015):
# About 2,200 (0.71%) of roughly 310,000 compounds showed an effect of 50% or more. The effect is printed as a negative number. The list shows a part of the results.
# Molecular target: human ether-à-go-go-related gene (hERG) potassium channel (human, UniProt Q12809)
# Experiment: primary screen, population patch clamp on CHO cells stably expressing hERG
# Sequence of human ether-à-go-go-related gene (hERG) potassium channel (Q12809 whole entry, looked up): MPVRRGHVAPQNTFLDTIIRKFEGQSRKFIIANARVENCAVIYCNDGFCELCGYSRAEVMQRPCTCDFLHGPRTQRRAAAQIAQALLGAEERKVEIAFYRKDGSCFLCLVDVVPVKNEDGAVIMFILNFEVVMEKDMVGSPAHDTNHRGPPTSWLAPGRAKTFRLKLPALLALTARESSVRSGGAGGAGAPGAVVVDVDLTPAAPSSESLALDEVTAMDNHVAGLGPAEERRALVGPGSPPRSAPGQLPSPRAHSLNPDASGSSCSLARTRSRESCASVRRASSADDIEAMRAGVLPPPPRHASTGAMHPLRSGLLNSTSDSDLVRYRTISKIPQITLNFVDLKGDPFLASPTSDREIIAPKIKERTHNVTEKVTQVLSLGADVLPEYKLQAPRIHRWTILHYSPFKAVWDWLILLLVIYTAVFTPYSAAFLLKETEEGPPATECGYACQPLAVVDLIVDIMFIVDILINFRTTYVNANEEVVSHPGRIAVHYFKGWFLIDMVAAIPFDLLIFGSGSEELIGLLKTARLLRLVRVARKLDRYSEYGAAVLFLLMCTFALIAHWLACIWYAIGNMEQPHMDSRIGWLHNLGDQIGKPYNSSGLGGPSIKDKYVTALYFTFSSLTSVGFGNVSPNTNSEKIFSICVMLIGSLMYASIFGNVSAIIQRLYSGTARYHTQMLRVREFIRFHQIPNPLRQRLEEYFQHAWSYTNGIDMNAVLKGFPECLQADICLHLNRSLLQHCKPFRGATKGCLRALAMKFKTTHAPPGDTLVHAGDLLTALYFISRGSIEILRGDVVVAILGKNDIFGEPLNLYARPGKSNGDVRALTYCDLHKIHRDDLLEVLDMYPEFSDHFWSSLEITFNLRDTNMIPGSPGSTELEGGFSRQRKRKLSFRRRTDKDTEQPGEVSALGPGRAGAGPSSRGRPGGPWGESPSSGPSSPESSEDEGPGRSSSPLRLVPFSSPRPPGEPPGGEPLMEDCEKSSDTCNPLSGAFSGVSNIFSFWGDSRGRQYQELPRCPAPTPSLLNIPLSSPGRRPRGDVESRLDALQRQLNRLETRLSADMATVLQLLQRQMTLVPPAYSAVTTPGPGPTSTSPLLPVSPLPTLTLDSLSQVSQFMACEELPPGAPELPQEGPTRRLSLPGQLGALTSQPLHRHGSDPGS
row,SMILES,"hERG current change (%, negative = inhibition) at 1uM"
1,CCCCc1ccc(NC(=O)C(=O)NCCN2CCN(Cc3ccc([N+](=O)[O-])cc3)CC2)cc1,-6.8%
2,COc1ccccc1OCCNC(=O)c1ccccc1C,14.3%
3,COc1ccc(NC(=O)c2c(C)nn(-c3ccccc3)c2Cl)cc1,15.5%
4,CCn1nnnc1SCC(=O)c1ccc(C)cc1C,12.8%
5,Cn1c(Sc2ccc(Cl)cc2)c(C=O)c2ccccc21,12.5%
6,CCOc1ccc(S(=O)(=O)Nc2ccc(O)c(Sc3ncn[nH]3)c2)cc1,9.09%
7,O=S(=O)([N-]c1nc2ccccc2nc1-n1cc[n+](Cc2ccccc2)c1)c1ccc(Br)cc1,18.1%
8,COc1ccc(Nc2nc(S(=O)(=O)c3ccc(C)cc3)c(Cl)s2)cc1,11.6%
9,CC(C)CN(C(=O)c1ccc([N+](=O)[O-])s1)c1c(N)n(Cc2ccccc2)c(=O)[nH]c1=O,12.7%
10,CC(C)CCN1CC(O)=C(c2nc3ccccc3[nH]2)C1=N,-5.93%
11,O=C(Cc1ccccc1)NC(NCCCN1CCOCC1)(C(F)(F)F)C(F)(F)F,8.29%
12,CCOCCCNC(=O)c1cccc(OC2CCN(S(C)(=O)=O)CC2)c1,10.8%
13,CCOC(=O)c1[nH]c2ccc(Br)cc2c1NC(=O)CCN1CCCC(C)(C)C1,-46.2%
14,COc1cccc(CNc2ccc([N+](=O)[O-])cc2Cl)c1O,14.4%
15,CCOC(=O)C(=O)/C(=C\N(C)C)c1onc(-c2c(F)cccc2Cl)c1C(=O)OC,5.72%
16,CCN(CC)S(=O)(=O)c1ccc(NC(=O)c2cccc3c2C(=O)N(CCOC)C3)cc1,0.268%
17,CC(=O)N(CCc1ccccc1C)Cc1cc2ccc(C)cc2[nH]c1=O,9.04%
18,Cc1ccc(NNC(=O)C(=O)N2CCCCC2)cc1,9.03%
19,Nc1nc(COc2ccc(F)cc2)nc(N2CCCCC2)n1,11.2%
20,COc1ccc(NC(=O)/C(=C/c2ccc3c(c2)OCO3)NC(C)=O)cc1,16.4%
21,COc1ccc(OCCSc2nnc(CCNC(=O)c3ccc(OC)cc3)n2C)cc1,0.796%
22,CCCC(=O)Nc1ccc(Nc2ccccc2)cc1,7.97%
23,CCCC(=O)Nc1ccccc1NC(=O)C1CCCCC1,17.9%
24,CN1CCN(c2ccc(NC(=S)NC(=O)/C=C/c3ccco3)cc2)CC1,13.8%
25,CC(=O)C1=C(C)NC2=C(C(=O)c3ccccc32)C1c1ccccc1 (stereo not shown),12.5%
26,CCCc1cc(=O)oc2c(C)c(OCC(=O)NC3CCN(Cc4ccccc4)CC3)ccc12,-19.4%
27,COc1ccc(C(=O)NC(=S)Nc2ccc(N3CCCC3)cc2)cc1,14.2%
28,COc1ccc(NC(=O)C(CC(=O)O)Cc2ccc(Cl)cc2)cc1 (stereo not shown),10.8%

row,SMILES,"hERG current change (%, negative = inhibition) at 1uM"
1,COc1ccc2c(=O)c3c(=O)n(Cc4ccco4)c(-c4cc(OC)c(OC)c(OC)c4)nc3oc2c1,-3.4%
2,O=C(CN(C1CCCCC1)S(=O)(=O)c1ccc(Br)cc1)NCc1ccncc1,-35%
3,O=C(Nc1cccc(NC(=O)c2cc([N+](=O)[O-])ccc2Cl)n1)c1cc([N+](=O)[O-])ccc1Cl,0.608%
4,Cc1ccc(NC(=O)c2cc3c(=O)oc4ccccc4c3s2)nc1,1.73%
5,COC(C(=O)Nc1cc([N+](=O)[O-])ccc1C)c1ccccc1 (stereo not shown),-4.8%
6,C#C[C@]1(O)CC[C@H]2[C@@H]3CCC4=C(CCC(=O)C4)[C@H]3CC[C@@]21C,19.4%
7,CCCN(C(=O)COc1ccc(Cl)cc1Cl)c1c(N)n(Cc2ccccc2)c(=O)[nH]c1=O,6.92%
8,Cn1cccc1C(=O)OCC(=O)Nc1cc(C(C)(C)C)nn1-c1ccccc1,-10.2%
9,O=C(N/C(=C/c1ccc(Br)cc1)C(=O)N1CCCCC1)c1ccccc1F,-1.06%
10,CC(C)N(Cc1nccn1C)C(=O)c1ccc(OC2CCN(C(=O)C3CC3)CC2)cc1,11.1%
11,COC(=O)c1nn(-c2ccccc2)c(Sc2ccc(Br)cc2)c1/C=N/O,7.27%
12,O=C(NCCNC(=O)c1ccc(Br)o1)c1cccnc1,12.5%
13,CN(CC(=O)Nc1c(Cl)cccc1Cl)C(=O)c1cc(S(=O)(=O)N(C)C)ccc1N1CCCC1,12.5%
14,CC1=CCC(Cc2nc3ccccc3o2)C1(C)C (stereo not shown),9.66%
15,COc1ccccc1OCCn1c(=O)n(C)c2ccccc21,12.5%
16,Cc1ccc(NC(=O)CSc2ccc(-c3cccnc3)nn2)cc1,4.84%
17,CN(C)c1ccc(N=c2sc3ccccc3n2C)cc1,13%
18,CC1CC(c2ccccc2)n2nc(N3C(=O)c4ccccc4C3=O)nc2N1 (stereo not shown),12.1%
19,O=C(NC1CC1)c1scc2c1OCCO2,13.1%
20,CN(C)CC(O)COc1ccc(C(C)(C)c2ccc(OCC(O)CN(C)C)cc2)cc1.Cl (stereo not shown),12.6%
21,CCOn1c(=O)c(-c2ccc(OC)c(OC)c2)[n+]([O-])c2ccccc21,11.5%
22,O=C(Cn1nc(Cc2cccnc2)c2ccccc2c1=O)NCC1COc2ccccc2O1 (stereo not shown),-19.9%
23,CC(=O)c1ccc(Nc2c(C)n(C)n(-c3ccccc3)c2=O)cc1,8.11%
24,O=C(CSc1nnnn1-c1ccccc1F)Nc1nc2ccccc2s1,-8.48%
25,CCOc1ccc(NC(=O)CSc2nncc(=O)[nH]2)cc1,13.3%
26,COc1ccc2c(c1)[nH]c(=O)c1sc3ccccc3c12,12.8%
27,COc1cc(-c2cc(C(F)(F)F)n3ncc(C(=O)O)c3n2)cc(OC)c1OC,10.1%
